To fix the notation:
T1: RBFOX1 RRM RbFoxmut (Fox-RRM*) (Homo sapiens, UniProt Q9NWB1 109-208, R118D;E147R;N151S;E152T)
T1 sequence: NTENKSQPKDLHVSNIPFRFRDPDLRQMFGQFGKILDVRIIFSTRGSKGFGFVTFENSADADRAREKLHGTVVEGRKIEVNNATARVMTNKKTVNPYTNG

B1: CUCGUAG (DNA:RNA)
RNA: GGGAGACCGGAAUUCAGAUUGUCCCUCGUAGUUAAAUCCCGUCGUAGCCACCA
DNA 1: CAATCTGAATTCCGGTCTCCC
DNA 2: TGGTGGCTACGACGGGATT
B2: ACGUUCA (DNA:RNA)
RNA: B1 RNA with C25A, U26C, C27G, G28U, A30C, G31A
DNA 1: CAATCTGAATTCCGGTCTCCC
DNA 2: TGGTGGCTACGACGGGATT
B3: CCCUAGC (DNA:RNA)
RNA: B1 RNA with U26C, G28U, U29A, A30G, G31C
DNA 1: CAATCTGAATTCCGGTCTCCC
DNA 2: TGGTGGCTACGACGGGATT
B4: UCGAACG (DNA:RNA)
RNA: B1 RNA with C25U, U26C, C27G, G28A, U29A, A30C
DNA 1: CAATCTGAATTCCGGTCTCCC
DNA 2: TGGTGGCTACGACGGGATT
B5: CAGCAAG (DNA:RNA)
RNA: B1 RNA with U26A, C27G, G28C, U29A
DNA 1: CAATCTGAATTCCGGTCTCCC
DNA 2: TGGTGGCTACGACGGGATT
B6: GAUUGCG (DNA:RNA)
RNA: B1 RNA with C25G, U26A, C27U, G28U, U29G, A30C
DNA 1: CAATCTGAATTCCGGTCTCCC
DNA 2: TGGTGGCTACGACGGGATT
B7: CUGUAAU (DNA:RNA)
RNA: B1 RNA with C27G, G28U, U29A, G31U
DNA 1: CAATCTGAATTCCGGTCTCCC
DNA 2: TGGTGGCTACGACGGGATT
B8: ACAUGAU (DNA:RNA)
RNA: B1 RNA with C25A, U26C, C27A, G28U, U29G, G31U
DNA 1: CAATCTGAATTCCGGTCTCCC
DNA 2: TGGTGGCTACGACGGGATT
B9: AUUUUAC (DNA:RNA)
RNA: B1 RNA with C25A, C27U, G28U, G31C
DNA 1: CAATCTGAATTCCGGTCTCCC
DNA 2: TGGTGGCTACGACGGGATT
B10: UGUAAGA (DNA:RNA)
RNA: GGGAGACCGGAAUUCAGAUUGUCCUGUAAGAUUAAAUCCCGUCGUAGCCACCA
DNA 1: CAATCTGAATTCCGGTCTCCC
DNA 2: TGGTGGCTACGACGGGATT
B11: ACCGGCA (DNA:RNA)
RNA: B1 RNA with C25A, U26C, U29G, A30C, G31A
DNA 1: CAATCTGAATTCCGGTCTCCC
DNA 2: TGGTGGCTACGACGGGATT
B12: AGCCGGC (DNA:RNA)
RNA: B10 RNA with U25A, U27C, A28C, A29G, A31C
DNA 1: CAATCTGAATTCCGGTCTCCC
DNA 2: TGGTGGCTACGACGGGATT
B13: AGACUUU (DNA:RNA)
RNA: B1 RNA with C25A, U26G, C27A, G28C, A30U, G31U
DNA 1: CAATCTGAATTCCGGTCTCCC
DNA 2: TGGTGGCTACGACGGGATT
B14: AGGAGAC (DNA:RNA)
RNA: B10 RNA with U25A, U27G, A29G, G30A, A31C
DNA 1: CAATCTGAATTCCGGTCTCCC
DNA 2: TGGTGGCTACGACGGGATT
B15: AGGUGCC (DNA:RNA)
RNA: B10 RNA with U25A, U27G, A28U, A29G, G30C, A31C
DNA 1: CAATCTGAATTCCGGTCTCCC
DNA 2: TGGTGGCTACGACGGGATT
B16: CUAAGGC (DNA:RNA)
RNA: B1 RNA with C27A, G28A, U29G, A30G, G31C
DNA 1: CAATCTGAATTCCGGTCTCCC
DNA 2: TGGTGGCTACGACGGGATT
B17: CGCAGCU (DNA:RNA)
RNA: B1 RNA with U26G, G28A, U29G, A30C, G31U
DNA 1: CAATCTGAATTCCGGTCTCCC
DNA 2: TGGTGGCTACGACGGGATT
B18: AUUCGUA (DNA:RNA)
RNA: B10 RNA with U25A, G26U, A28C, A29G, G30U
DNA 1: CAATCTGAATTCCGGTCTCCC
DNA 2: TGGTGGCTACGACGGGATT
B19: CGACACG (DNA:RNA)
RNA: B1 RNA with U26G, C27A, G28C, U29A, A30C
DNA 1: CAATCTGAATTCCGGTCTCCC
DNA 2: TGGTGGCTACGACGGGATT
B20: GGGUCGC (DNA:RNA)
RNA: B10 RNA with U25G, U27G, A28U, A29C, A31C
DNA 1: CAATCTGAATTCCGGTCTCCC
DNA 2: TGGTGGCTACGACGGGATT
B21: AUUGGGA (DNA:RNA)
RNA: B10 RNA with U25A, G26U, A28G, A29G
DNA 1: CAATCTGAATTCCGGTCTCCC
DNA 2: TGGTGGCTACGACGGGATT
B22: UAUUUCU (DNA:RNA)
RNA: B10 RNA with G26A, A28U, A29U, G30C, A31U
DNA 1: CAATCTGAATTCCGGTCTCCC
DNA 2: TGGTGGCTACGACGGGATT
B23: CGAUUGC (DNA:RNA)
RNA: B1 RNA with U26G, C27A, G28U, A30G, G31C
DNA 1: CAATCTGAATTCCGGTCTCCC
DNA 2: TGGTGGCTACGACGGGATT
B24: GCAGUUA (DNA:RNA)
RNA: B1 RNA with C25G, U26C, C27A, A30U, G31A
DNA 1: CAATCTGAATTCCGGTCTCCC
DNA 2: TGGTGGCTACGACGGGATT
B25: UUCGCUA (DNA:RNA)
RNA: B1 RNA with C25U, U29C, A30U, G31A
DNA 1: CAATCTGAATTCCGGTCTCCC
DNA 2: TGGTGGCTACGACGGGATT
B26: UUCAUCC (DNA:RNA)
RNA: B1 RNA with C25U, G28A, A30C, G31C
DNA 1: CAATCTGAATTCCGGTCTCCC
DNA 2: TGGTGGCTACGACGGGATT
B27: GAUUACU (DNA:RNA)
RNA: B10 RNA with U25G, G26A, A28U, G30C, A31U
DNA 1: CAATCTGAATTCCGGTCTCCC
DNA 2: TGGTGGCTACGACGGGATT
B28: CGAAAGG (DNA:RNA)
RNA: B10 RNA with U25C, U27A, A31G
DNA 1: CAATCTGAATTCCGGTCTCCC
DNA 2: TGGTGGCTACGACGGGATT
B29: CCGGAUA (DNA:RNA)
RNA: B1 RNA with U26C, C27G, U29A, A30U, G31A
DNA 1: CAATCTGAATTCCGGTCTCCC
DNA 2: TGGTGGCTACGACGGGATT
B30: GAUCGGG (DNA:RNA)
RNA: B10 RNA with U25G, G26A, A28C, A29G, A31G
DNA 1: CAATCTGAATTCCGGTCTCCC
DNA 2: TGGTGGCTACGACGGGATT
B31: UCGCCGU (DNA:RNA)
RNA: B10 RNA with G26C, U27G, A28C, A29C, A31U
DNA 1: CAATCTGAATTCCGGTCTCCC
DNA 2: TGGTGGCTACGACGGGATT

Changes are numbered by the printed parent chain; changes in the protein carry UniProt numbers. The list shows a part of the results.

For the assay, the target named is T1, RBFOX1 RRM RbFoxmut (Fox-RRM*). Nature of the assay: EMSA; HiTS-Eq, 1 nM pool, 10 min; buffer printed only for the single-RNA assays: 10 mM Tris pH 7.5, 150 mM NaCl, 3.4 mM EDTA, 0.001% NP-40, 30 C. Conditions: tags: His6 N-terminal (pET28a); label: 5' 32P. Put shortly:
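A pool of RNA with 7 randomized nucleotides, 5′-radiolabelled and with DNA-annealed flanks, was equilibrated at 1 nM for 10 min in 50 µL with purified RbFox RRM, wild type or mutant, across increasing protein concentrations. Free RNA was separated by 8% native PAGE, excised, reverse-transcribed, barcoded by PCR and sequenced. Relative association constants were obtained from read-count changes of each RNA species versus the control reaction and normalised to the cognate motif.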
For the molecule B1, the binding signal is 0.157 KA relative to UGCAUGU.
With B2 the figure was 0.13 KA relative to UGCAUGU; with B3, 0.0978 KA relative to UGCAUGU; with B4, 0.266 KA relative to UGCAUGU.
With B5 the figure was 0.0981 KA relative to UGCAUGU; with B6, 0.204 KA relative to UGCAUGU.
On to B7, for which the binding signal is 0.0942 KA relative to UGCAUGU.
On to B8, for which the binding signal was 0.0851 KA relative to UGCAUGU.
As for B9, the binding signal is 0.119 KA relative to UGCAUGU.
Consider B10, for which the binding signal was 0.0914 KA relative to UGCAUGU.
The value for B11 was 0.1 KA relative to UGCAUGU; that for B12 was 0.111 KA relative to UGCAUGU.
For the molecule B13, the binding signal is 0.063 KA relative to UGCAUGU.
In the case of B14, the binding signal was 0.0904 KA relative to UGCAUGU.
The value for B15 was 0.231 KA relative to UGCAUGU; that for B16 was 0.0843 KA relative to UGCAUGU; that for B17 was 0.1 KA relative to UGCAUGU.
The value for B18 was 0.153 KA relative to UGCAUGU; that for B19 was 0.0616 KA relative to UGCAUGU; that for B20 was 0.149 KA relative to UGCAUGU.
With B21 the figure was 0.0849 KA relative to UGCAUGU; with B22, 0.0848 KA relative to UGCAUGU.
With B23, the binding signal was 0.178 KA relative to UGCAUGU.
The value for B24 was 0.0947 KA relative to UGCAUGU; that for B25 was 0.109 KA relative to UGCAUGU.
Regarding B26, the binding signal is 0.053 KA relative to UGCAUGU.
B27: the binding signal was 0.104 KA relative to UGCAUGU.
Turning to B28, the binding signal was 0.0528 KA relative to UGCAUGU.
With B29, the binding signal was 0.0587 KA relative to UGCAUGU.
With B30, the binding signal was 0.0692 KA relative to UGCAUGU.
With B31 the figure was 0.103 KA relative to UGCAUGU.

These data come from PMC9911399, “Two distinct binding modes provide the RNA-binding protein RbFox with extraordinary sequence specificity”.
